This is an account of results in article PMC12820563.

Some of the results follow. The list includes weakly bound sequences.

The assay has as its target T1, MBP-FoxP3dN (UniProt Q99JB6).
T1 sequence: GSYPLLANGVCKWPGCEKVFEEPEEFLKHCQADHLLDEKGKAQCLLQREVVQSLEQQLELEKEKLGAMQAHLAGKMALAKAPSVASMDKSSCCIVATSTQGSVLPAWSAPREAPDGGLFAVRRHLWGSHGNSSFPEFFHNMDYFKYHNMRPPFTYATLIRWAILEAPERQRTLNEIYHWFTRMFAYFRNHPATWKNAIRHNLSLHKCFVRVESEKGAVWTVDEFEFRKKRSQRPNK
As to the kind of experiment: PD-seq (MBP pull-down with sequencing). Particulars: 20 mM Tris-HCl pH 7.5, 100 mM NaCl, 1.5 mM MgCl2, 0.4 uM protein, 0.1 uM dsDNA library, 30 min, room temperature, amylose pull-down; high values mean tight binding; double strand, one strand shown.
Turning to “GATGATTGTTCTCCCAGCTGATGAATTATTCGACTCGAGTAAACAAATTTTCCTAATCTTTCTGTTCAAGCGCCATCTAC”, the binding signal (RPM ratio (pull-down/input)) is 0.384.

As for “GATGATTGTTCTCCCAGCTGATGAATTCAAGCGTTCGAGTAAACAAATTTTCCTAATCTTTCTGTTCAAGCGCCATCTAC”, the binding signal (RPM ratio (pull-down/input)) amounted to 1.08. The figure for “GATGATTGTTCTCCCAGCTGATGAATTATTGAGGTCGAGTAAACAAATTTTCCTAATCTTTCTGTTCAAGCGCCATCTAC” is 0.344; for “GATGATTGTTCTCCCAGCTGATGAATTGCGCCGATCGAGTAAACAAATTTTCCTAATCTTTCTGTTCAAGCGCCATCTAC” it is 1.06. For “GATGATTGTTCTCCCAGCTGATGAATTCCTGACGTCGAGTAAACAAATTTTCCTAATCTTTCTGTTCAAGCGCCATCTAC”, the binding signal (RPM ratio (pull-down/input)) worked out at 0.236. For “GATGATTGTTCTCCCAGCTGATGAATTGTTCCGGTCGAGTAAACAAATTTTCCTAATCTTTCTGTTCAAGCGCCATCTAC”, the binding signal (RPM ratio (pull-down/input)) was found to be 0.264. With “GATGATTGTTCTCCCAGCTGATGAATTCACGGTTTCGAGTAAACAAATTTTCCTAATCTTTCTGTTCAAGCGCCATCTAC”, the binding signal (RPM ratio (pull-down/input)) came to 0.47. On to “GATGATTGTTCTCCCAGCTGATGAATTTTCTAGCTCGAGTAAACAAATTTTCCTAATCTTTCTGTTCAAGCGCCATCTAC”, for which the binding signal (RPM ratio (pull-down/input)) is 0.238. The figure for “GATGATTGTTCTCCCAGCTGATGAATTGTAGGTCTCGAGTAAACAAATTTTCCTAATCTTTCTGTTCAAGCGCCATCTAC” is 0.759; for “GATGATTGTTCTCCCAGCTGATGAATTGACAAAGTCGAGTAAACAAATTTTCCTAATCTTTCTGTTCAAGCGCCATCTAC” it is 0.248. “GATGATTGTTCTCCCAGCTGATGAATTTGTTTCCTCGAGTAAACAAATTTTCCTAATCTTTCTGTTCAAGCGCCATCTAC”: the binding signal (RPM ratio (pull-down/input)) was 5.92. Turning to “GATGATTGTTCTCCCAGCTGATGAATTCCTCTAGTCGAGTAAACAAATTTTCCTAATCTTTCTGTTCAAGCGCCATCTAC”, the binding signal (RPM ratio (pull-down/input)) was 0.193. On to “GATGATTGTTCTCCCAGCTGATGAATTAAAAGACTCGAGTAAACAAATTTTCCTAATCTTTCTGTTCAAGCGCCATCTAC”, for which the binding signal (RPM ratio (pull-down/input)) was 0.207. “GATGATTGTTCTCCCAGCTGATGAATTCGGAATATCGAGTAAACAAATTTTCCTAATCTTTCTGTTCAAGCGCCATCTAC”: the binding signal (RPM ratio (pull-down/input)) was found to be 0.414.

Consider “GATGATTGTTCTCCCAGCTGATGAATTTAGCGATTCGAGTAAACAAATTTTCCTAATCTTTCTGTTCAAGCGCCATCTAC”, for which the binding signal (RPM ratio (pull-down/input)) came out at 1.28. Turning to “GATGATTGTTCTCCCAGCTGATGAATTTGCGTAGTCGAGTAAACAAATTTTCCTAATCTTTCTGTTCAAGCGCCATCTAC”, the binding signal (RPM ratio (pull-down/input)) was 2.99. For “GATGATTGTTCTCCCAGCTGATGAATTATACGTGTCGAGTAAACAAATTTTCCTAATCTTTCTGTTCAAGCGCCATCTAC”, the binding signal (RPM ratio (pull-down/input)) worked out at 0.678. “GATGATTGTTCTCCCAGCTGATGAATTTCTCTTTTCGAGTAAACAAATTTTCCTAATCTTTCTGTTCAAGCGCCATCTAC”: the binding signal (RPM ratio (pull-down/input)) came to 0.288. The figure for “GATGATTGTTCTCCCAGCTGATGAATTGGGCACTTCGAGTAAACAAATTTTCCTAATCTTTCTGTTCAAGCGCCATCTAC” is 0.729. On to “GATGATTGTTCTCCCAGCTGATGAATTAGGCTTATCGAGTAAACAAATTTTCCTAATCTTTCTGTTCAAGCGCCATCTAC”, for which the binding signal (RPM ratio (pull-down/input)) turned out to be 1.33.

Consider “GATGATTGTTCTCCCAGCTGATGAATTCGTAGGCTCGAGTAAACAAATTTTCCTAATCTTTCTGTTCAAGCGCCATCTAC”, for which the binding signal (RPM ratio (pull-down/input)) turned out to be 0.496.

Turning to “GATGATTGTTCTCCCAGCTGATGAATTGTGTGCTTCGAGTAAACAAATTTTCCTAATCTTTCTGTTCAAGCGCCATCTAC”, the binding signal (RPM ratio (pull-down/input)) was 2.42. The figure for “GATGATTGTTCTCCCAGCTGATGAATTTAAGTGTTCGAGTAAACAAATTTTCCTAATCTTTCTGTTCAAGCGCCATCTAC” is 1.03; for “GATGATTGTTCTCCCAGCTGATGAATTTCTTCACTCGAGTAAACAAATTTTCCTAATCTTTCTGTTCAAGCGCCATCTAC” it is 0.269; for “GATGATTGTTCTCCCAGCTGATGAATTAACTGCTTCGAGTAAACAAATTTTCCTAATCTTTCTGTTCAAGCGCCATCTAC” it is 0.288. The figure for “GATGATTGTTCTCCCAGCTGATGAATTGCTAGCATCGAGTAAACAAATTTTCCTAATCTTTCTGTTCAAGCGCCATCTAC” is 1.34; for “GATGATTGTTCTCCCAGCTGATGAATTCGTACTCTCGAGTAAACAAATTTTCCTAATCTTTCTGTTCAAGCGCCATCTAC” it is 0.539; for “GATGATTGTTCTCCCAGCTGATGAATTCGTTCGTTCGAGTAAACAAATTTTCCTAATCTTTCTGTTCAAGCGCCATCTAC” it is 0.42. Turning to “GATGATTGTTCTCCCAGCTGATGAATTTTCACCTTCGAGTAAACAAATTTTCCTAATCTTTCTGTTCAAGCGCCATCTAC”, the binding signal (RPM ratio (pull-down/input)) was determined as 0.23.

With “GATGATTGTTCTCCCAGCTGATGAATTACCGTGATCGAGTAAACAAATTTTCCTAATCTTTCTGTTCAAGCGCCATCTAC”, the binding signal (RPM ratio (pull-down/input)) came to 0.455.

As to “GATGATTGTTCTCCCAGCTGATGAATTGCTGGCCTCGAGTAAACAAATTTTCCTAATCTTTCTGTTCAAGCGCCATCTAC”, the binding signal (RPM ratio (pull-down/input)) stood at 0.655. Regarding “GATGATTGTTCTCCCAGCTGATGAATTATATCCATCGAGTAAACAAATTTTCCTAATCTTTCTGTTCAAGCGCCATCTAC”, the binding signal (RPM ratio (pull-down/input)) was 0.488. As for “GATGATTGTTCTCCCAGCTGATGAATTAAAGGGTTCGAGTAAACAAATTTTCCTAATCTTTCTGTTCAAGCGCCATCTAC”, the binding signal (RPM ratio (pull-down/input)) is 0.368. In the case of “GATGATTGTTCTCCCAGCTGATGAATTCTATGGCTCGAGTAAACAAATTTTCCTAATCTTTCTGTTCAAGCGCCATCTAC” it was 0.47.

With “GATGATTGTTCTCCCAGCTGATGAATTTGACTGCTCGAGTAAACAAATTTTCCTAATCTTTCTGTTCAAGCGCCATCTAC”, the binding signal (RPM ratio (pull-down/input)) amounted to 0.515.

For the sequence “GATGATTGTTCTCCCAGCTGATGAATTTACCTGTTCGAGTAAACAAATTTTCCTAATCTTTCTGTTCAAGCGCCATCTAC”, the binding signal (RPM ratio (pull-down/input)) came out at 0.503.

For the sequence “GATGATTGTTCTCCCAGCTGATGAATTTAATAAATCGAGTAAACAAATTTTCCTAATCTTTCTGTTCAAGCGCCATCTAC”, the binding signal (RPM ratio (pull-down/input)) worked out at 0.244. For the sequence “GATGATTGTTCTCCCAGCTGATGAATTATTTCTATCGAGTAAACAAATTTTCCTAATCTTTCTGTTCAAGCGCCATCTAC”, the binding signal (RPM ratio (pull-down/input)) was determined as 0.413. In the case of “GATGATTGTTCTCCCAGCTGATGAATTCTGTGCTTCGAGTAAACAAATTTTCCTAATCTTTCTGTTCAAGCGCCATCTAC” it was 1.15; in that of “GATGATTGTTCTCCCAGCTGATGAATTTGCACTCTCGAGTAAACAAATTTTCCTAATCTTTCTGTTCAAGCGCCATCTAC”, 1. In the case of “GATGATTGTTCTCCCAGCTGATGAATTGCGTCTCTCGAGTAAACAAATTTTCCTAATCTTTCTGTTCAAGCGCCATCTAC” it was 1.58; in that of “GATGATTGTTCTCCCAGCTGATGAATTGTGCCAGTCGAGTAAACAAATTTTCCTAATCTTTCTGTTCAAGCGCCATCTAC”, 3.33; in that of “GATGATTGTTCTCCCAGCTGATGAATTATGGTCGTCGAGTAAACAAATTTTCCTAATCTTTCTGTTCAAGCGCCATCTAC”, 0.701. In the case of “GATGATTGTTCTCCCAGCTGATGAATTATCCGCCTCGAGTAAACAAATTTTCCTAATCTTTCTGTTCAAGCGCCATCTAC” it was 0.497; in that of “GATGATTGTTCTCCCAGCTGATGAATTAATAACATCGAGTAAACAAATTTTCCTAATCTTTCTGTTCAAGCGCCATCTAC”, 1.82. Take “GATGATTGTTCTCCCAGCTGATGAATTATCTGCCTCGAGTAAACAAATTTTCCTAATCTTTCTGTTCAAGCGCCATCTAC”: the binding signal (RPM ratio (pull-down/input)) was determined as 0.443. As to “GATGATTGTTCTCCCAGCTGATGAATTTTCTCGTTCGAGTAAACAAATTTTCCTAATCTTTCTGTTCAAGCGCCATCTAC”, the binding signal (RPM ratio (pull-down/input)) is 0.27. For “GATGATTGTTCTCCCAGCTGATGAATTGGATTGGTCGAGTAAACAAATTTTCCTAATCTTTCTGTTCAAGCGCCATCTAC”, the binding signal (RPM ratio (pull-down/input)) is 1.26. Turning to “GATGATTGTTCTCCCAGCTGATGAATTGGTATGGTCGAGTAAACAAATTTTCCTAATCTTTCTGTTCAAGCGCCATCTAC”, the binding signal (RPM ratio (pull-down/input)) came to 1.45. As for “GATGATTGTTCTCCCAGCTGATGAATTATAAGTGTCGAGTAAACAAATTTTCCTAATCTTTCTGTTCAAGCGCCATCTAC”, the binding signal (RPM ratio (pull-down/input)) was 0.624.

“GATGATTGTTCTCCCAGCTGATGAATTGAGCGTTTCGAGTAAACAAATTTTCCTAATCTTTCTGTTCAAGCGCCATCTAC”: the binding signal (RPM ratio (pull-down/input)) came to 3. As for “GATGATTGTTCTCCCAGCTGATGAATTTTATCGATCGAGTAAACAAATTTTCCTAATCTTTCTGTTCAAGCGCCATCTAC”, the binding signal (RPM ratio (pull-down/input)) worked out at 0.479. In the case of “GATGATTGTTCTCCCAGCTGATGAATTAACCCGGTCGAGTAAACAAATTTTCCTAATCTTTCTGTTCAAGCGCCATCTAC” it was 0.173; in that of “GATGATTGTTCTCCCAGCTGATGAATTAAGGTAATCGAGTAAACAAATTTTCCTAATCTTTCTGTTCAAGCGCCATCTAC”, 0.521; in that of “GATGATTGTTCTCCCAGCTGATGAATTCAGCTTCTCGAGTAAACAAATTTTCCTAATCTTTCTGTTCAAGCGCCATCTAC”, 1.94.

On to “GATGATTGTTCTCCCAGCTGATGAATTGACGCTGTCGAGTAAACAAATTTTCCTAATCTTTCTGTTCAAGCGCCATCTAC”, for which the binding signal (RPM ratio (pull-down/input)) turned out to be 0.713. In the case of “GATGATTGTTCTCCCAGCTGATGAATTACCAGCCTCGAGTAAACAAATTTTCCTAATCTTTCTGTTCAAGCGCCATCTAC” it was 0.34; in that of “GATGATTGTTCTCCCAGCTGATGAATTCGCATAATCGAGTAAACAAATTTTCCTAATCTTTCTGTTCAAGCGCCATCTAC”, 0.609; in that of “GATGATTGTTCTCCCAGCTGATGAATTGATCTACTCGAGTAAACAAATTTTCCTAATCTTTCTGTTCAAGCGCCATCTAC”, 0.425.

As to “GATGATTGTTCTCCCAGCTGATGAATTGGCGGCTTCGAGTAAACAAATTTTCCTAATCTTTCTGTTCAAGCGCCATCTAC”, the binding signal (RPM ratio (pull-down/input)) stood at 0.377. For the sequence “GATGATTGTTCTCCCAGCTGATGAATTGACTAGCTCGAGTAAACAAATTTTCCTAATCTTTCTGTTCAAGCGCCATCTAC”, the binding signal (RPM ratio (pull-down/input)) came out at 0.298. The figure for “GATGATTGTTCTCCCAGCTGATGAATTCTAGTTATCGAGTAAACAAATTTTCCTAATCTTTCTGTTCAAGCGCCATCTAC” is 1.05; for “GATGATTGTTCTCCCAGCTGATGAATTTCGTTTGTCGAGTAAACAAATTTTCCTAATCTTTCTGTTCAAGCGCCATCTAC” it is 3.81.
